Assay results taken from PubChem BioAssay AID1794744 (DTP/NCI, 2022).
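Assay: single dose, 48 h. Readout: percent growth (0 = no net growth; negative = cell death). Active: <10.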 For part of its entries the source gives two or more results. They are shown here; other results are not. The source may hold further records. The screen tested this drug many times, at the concentration stated with the values; each value is one run. Marks such as (2×) stand for listed records that agree.

Tested on: DMS 273 lung
Assay: NCI-60 one-dose screen, 48 h (100 = growth as untreated, 0 = no growth, -100 = all killed)
Settings: 2.5 mM
Protocol: Growth inhibition of the DMS 273 human tumor cell line is measured as a screen for anti-cancer activity. Cells are grown in 96 well plates and exposed to the test compound for 48 hours. Compounds are tested at a single concentration, which is 10^-5 M for most compounds. The reported endpoint is percent growth (GI% or GIPRCNT), where numbers from 0 - 100% represent growth inhibition, and numbers from -100% - 0 represent cell death. For example, a value of 40 represents 60% growth inhibition. A value of 0 means no net growth occurred over the course of the experiment. A value of -40 indicates 40% of cells at the beginning of the experiment died by the end of the experiment. A value of -100 means all cells are dead at the end of the experiment.
NCI-60 Human Tumor Cell Lines Screen was performed using the standard one-dose NCI protocol, which is described in more detail at https://dtp.cancer.gov/discovery_development/nci-60/default.htm.
Compounds with GIPRCNT values below 10 were considered active. Activity score was based on GIPRCNT using the following formula: […]
Score is 0 for GIPRCNT values of 100 or above, 50 for GIPRCNT values of 0, and 100 for GIPRCNT values of -100.

Compound: O=c1[nH]cc(F)c(=O)[nH]1
- growth (runs of 1991): 24.9, 4.67, -20.8, -9.55, 5.38, 12.2, 5.35, 0.0978, 10.9, 9.35, 4.08, 4.86%
- growth (runs of 1992): -8.68, -32.3, 7.21, -26.4, 1.66, 4.88, 1.31, 5.49, 8.06, 8.68, 13.4, 5.56, 13.3, 3.25, 8.31, -1.97, 3.51, -29, -12.9, 106, 4.71, 2.41, 9.73, 7.28, 7.82 (2×), 14.7, -20.5, 4.99, 4.95, -10.9, 2.59, -22.4, 5.04, 4.98, 5.96, 4.75, 3.47, 7.55, 10.4 (2×), 9.89, 3.28, 1.97, -17, 6.02 (2×), 4.04, 3.75, 11.7, 0.682, 13.2, 5.91, 9.26, 0.544, -1.49, -25.8, 0.803, -8.03, 3.09, 1.18, -23.6, -22.6, -10.4, 9.42, 7.95, 9.95, 5.07, -5.81, 6.85, -15.2, 7, 12.7, 13.9, 6.58, -1.43, -33.9, 39.7, 14.4, 7.9, 9.67, 6.36, -28.4, -5.43, 8.62, 15.2, 16.9, 4.31%
